Measured values as given in the supplement of paper PMC12217912.
The list shows a part of the results. The full chains were built here from the parent and the listed change. Inactive controls read about 0.05.

B1: TEV protease; numbered along this chain (parent)
chain: MGESLFKGPRDYNPISSSICHLTNESDGHTTSLYGIGFGPFIITNKHLFRRNNGTLVVQSLHGVFKVKDTTTLQQHLVDGRDMIIIRMPKDFPPFPQKLKFREPQREERICLVTTNFQTKSMSSMVSDTSCTFPSGDGIFWKHWIQTKDGQCGSPLVSTRDGFIVGIHSASNFTNTNNYFTSVPKNFMELLTNQEAQQWVSGWRLNADSVLWGGHKVFMVKPEEPFQPVKEATQL

Variants of: B1
Assay: raw area under fraction-flipped curve 0-4 h after induction (AUC4h, not background-subtracted), DNA-recorder readout of cleavage of the substrate (dimensionless); higher = more cleavage of the substrate by the protease variant
Settings: temperature: 34 °C; time window: 0-4 h after rhamnose induction
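Note: Bxb1 expression induced with 0.2% (w/v) L-rhamnose at OD600 near 0.5, cultures sampled hourly, flipped fraction per protease–substrate barcode pair counted by paired-end Illumina sequencing.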

Variant | area with substrate ENLYFIS | area with substrate ENLYFNS | area with substrate ENLYFPS | area with substrate ENLYFHS | area with substrate ENLYFKS | area with substrate ENLYFTS | area with substrate ENLYFMS | area with substrate ENLYFSS | area with substrate ENLYFVS | area with substrate ENLYFWS
S209I | 0.0302 | 0.0659 | 0.0806 |  |  |  |  |  |  | 
G8N | 0.0563 |  | 0.0208 | 0.0495 | 0.0622 | 0.0581 |  |  |  | 
T119E | 0.0552 | 0.0653 |  | 0.072 |  |  | 0.083 | 0.0725 | 0.0459 | 0.0455
N186A | 0.0531 |  | 0.0482 |  |  |  |  |  |  | 
L205V |  |  | 0.0611 |  | 0.047 |  |  |  |  | 0.0419
E195Y | 0.06 |  | 0.0541 |  |  |  | 0.0619 |  |  | 0.0577
P104K |  | 0.0548 |  |  |  | 0.0484 |  | 0.0469 |  | 
H215A | 0.0571 | 0.0612 | 0.0557 | 0.0581 | 0.0658 |  |  | 0.0915 | 0.0562 | 
K216A | 0.0529 |  | 0.0428 |  | 0.0439 | 0.04 |  |  | 0.0423 | 0.048
T174A | 0.0531 | 0.0918 |  |  |  |  |  | 0.0562 |  | 0.0637
G35K | 0.0488 |  |  |  | 0.0502 |  |  |  | 0.0267 | 

Same assay, conditions: temperature: 34 °C; time window: 0-4 h after rhamnose induction

Variant | area with substrate ENLYFYS | area with substrate ENLYFRS | area with substrate ENLYFGS
N186A | 0.0445 |  | 
L205V |  | 0.0969 | 
E195Y |  |  | 0.0524
P104K | 0.0188 |  | 
H215A | 0.0503 | 0.0373 | 0.0527
K216A |  | 0.0895 | 
T174A | 0.0613 |  | 
